The values that follow come from publication PMC6919601, “Identification of Plasmodium dipeptidyl aminopeptidase allosteric inhibitors by high throughput screening” (PLoS ONE, 2019).

Out of some 110,000 compounds screened, about 230 (0.21%) showed an effect of 50% or more. The list shows a part of the results.
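Note: 30 min substrate incubation versus DMSO and 10 µM JCP410 controls.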

The target of this experiment is DPAP1 (Plasmodium falciparum, UniProt Q8IIJ9). The experiment in a line: primary screen, percent inhibition; read by cleavage of a fluorogenic dipeptide substrate; higher = more effect of the substance. The arrangement: species or system P. falciparum D10 trophozoite lysates; single well.
Sequence of DPAP1 (Q8IIJ9 whole entry, looked up): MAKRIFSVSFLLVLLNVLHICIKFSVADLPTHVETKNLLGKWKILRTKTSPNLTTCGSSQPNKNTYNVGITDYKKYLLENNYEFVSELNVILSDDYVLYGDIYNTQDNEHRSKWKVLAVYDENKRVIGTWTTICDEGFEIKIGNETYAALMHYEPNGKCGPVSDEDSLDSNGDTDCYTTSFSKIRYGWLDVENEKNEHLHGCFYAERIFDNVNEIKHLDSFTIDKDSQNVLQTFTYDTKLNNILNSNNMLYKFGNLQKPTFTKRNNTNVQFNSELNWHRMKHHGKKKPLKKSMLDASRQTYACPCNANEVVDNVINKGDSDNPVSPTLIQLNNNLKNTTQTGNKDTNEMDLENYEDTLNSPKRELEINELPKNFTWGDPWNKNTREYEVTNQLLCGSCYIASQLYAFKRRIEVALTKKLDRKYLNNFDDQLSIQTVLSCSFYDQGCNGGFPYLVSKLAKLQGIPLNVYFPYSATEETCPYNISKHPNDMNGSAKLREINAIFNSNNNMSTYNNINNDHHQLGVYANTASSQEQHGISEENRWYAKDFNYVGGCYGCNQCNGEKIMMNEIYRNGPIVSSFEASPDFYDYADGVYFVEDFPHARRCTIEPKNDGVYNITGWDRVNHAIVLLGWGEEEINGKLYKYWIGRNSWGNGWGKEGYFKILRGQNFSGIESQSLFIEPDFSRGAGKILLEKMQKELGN
With `Cc1ccsc1CN(C(=O)C(C)Oc1ccc(Cl)cc1Cl)C1CCS(=O)(=O)C1` (stereo not shown), the “% Inhibition @ 10 uM” value came out at 3.77%.

`Cc1cc([N+](=O)[O-])cc2c1NC(=O)C2=O`: the “% Inhibition @ 10 uM” value was 4.08%.

On to `CSc1nc(-c2ccccc2)nc(N2CCOCC2)c1C(C)=O`, for which the “% Inhibition @ 10 uM” value is given as -7.46%.

In the case of `CCn1nccc1C(=O)Nc1ccc(C)cc1C`, the “% Inhibition @ 10 uM” value is listed as -6.48%.

Turning to `O=C(Nc1ccc(Oc2ccccc2)cc1)c1ccc(NC(=O)C(F)(F)F)cc1`, the “% Inhibition @ 10 uM” value is on record as -1.95%.

For the molecule `Cc1ccc(C)n1-c1nnc(N2CCC(C(=O)NCCN3CCOCC3)CC2)s1`, the “% Inhibition @ 10 uM” value was determined as 1.72%.

Consider `CC(C)=CCC[C@H](C)CCN1CCN(c2ccccc2)CC1`, for which the “% Inhibition @ 10 uM” value is -0.603%.

For `Cc1nn(CC(=O)O)c(=O)c2c1sc1ccccc12`, the “% Inhibition @ 10 uM” value was -0.0309%.

For `Cn1c(=O)c2sccc2n2c(CCC(=O)NCc3cccs3)nnc12`, the “% Inhibition @ 10 uM” value is given as -1.01%.

For `C=C(C)COc1cc(O)c2c(=O)cc(-c3ccccc3)oc2c1`, the “% Inhibition @ 10 uM” value is reported as -1.6%.

`Cc1ccc(S(=O)(=O)N2CCN(CCO)CC2)cc1-c1nnc2c3ccccc3c(C)nn12`: the “% Inhibition @ 10 uM” value was -3.64%.

With `Cc1ccc(NC(=O)/C=C/c2ccc3c(c2)OCO3)cc1C`, the “% Inhibition @ 10 uM” value is recorded as -2.12%.

With `CC(=O)Nc1cccc(NC(=O)COc2ccccc2C)c1`, the “% Inhibition @ 10 uM” value was -1.42%.

On to `CC(C)C[C@H](NC(=O)OCCC1CCCC1)C(=O)NCC#N`, for which the “% Inhibition @ 10 uM” value is on record as -3.04%.

Consider `O=C1NC(=O)C(=Cc2cn(-c3ccccc3)nc2-c2ccc(F)cc2)C(=O)N1`, for which the “% Inhibition @ 10 uM” value is -6.08%.

In the case of `CCOC(=O)C1=C(Cc2ccc(F)cc2)C(=O)c2ccccc2C1=O`, the “% Inhibition @ 10 uM” value came out at 9.64%.

`COc1cccc2sc(N(CCCN(C)C)C(=O)c3ccc(Br)s3)nc12`: the “% Inhibition @ 10 uM” value is listed as -5.18%.

`COc1ccccc1CNC(=O)C1CCN(S(=O)(=O)c2ccc3[nH]c4c(c3c2)CCCCC4)CC1`: the “% Inhibition @ 10 uM” value was -1.7%.

For the molecule `COc1ccc(-c2csc(NC3=NCCCCC3)n2)cc1`, the “% Inhibition @ 10 uM” value was -5.13%.

Regarding `Cc1cc(Oc2nc3ccccn3c(=O)c2/C=C(\C#N)C(=O)NCc2ccco2)ccc1Cl`, the “% Inhibition @ 10 uM” value was -6.23%.

As to `Fc1cccc(F)c1CN1CCN(Cc2ccccc2)CC1`, the “% Inhibition @ 10 uM” value stood at 3.24%.

`COc1ccc(C(=O)Nc2c3c(nn2-c2ccccc2C)CS(=O)C3)c(OC)c1` (stereo not shown): the “% Inhibition @ 10 uM” value is recorded as 2.84%.

Turning to `COc1ccc(C(=O)Nc2cc(OC)cc(OC)c2)cc1`, the “% Inhibition @ 10 uM” value is recorded as 7.34%.

Regarding `COc1cc(S(=O)(=O)NC(C)c2ccccc2)c(OC)cc1Cl` (stereo not shown), the “% Inhibition @ 10 uM” value is 4.63%.

On to `CC(=O)OC1CCC2(C)C(=CCC3C2CCC2(C)C(C(C)=O)=C(C)CC32)C1` (stereo not shown), for which the “% Inhibition @ 10 uM” value is given as -2.58%.

As to `Cc1ccc(C(=O)Nc2sc(C)c(C)c2C(N)=O)o1`, the “% Inhibition @ 10 uM” value turned out to be 5.14%.

As to `CS(=O)(=O)N1CCN(Cc2ccccn2)CC1`, the “% Inhibition @ 10 uM” value is on record as -4.7%.

With `COCCNC(=O)CCn1nc(-c2ccc(Cl)cc2)ccc1=O`, the “% Inhibition @ 10 uM” value is recorded as -3.58%.
